About 31,000 (8.9%) of roughly 350,000 compounds were called active. The inconclusive results got no clear call from the source; some entries with a clear call stand among them for comparison. The call rests on the fitted dose curve; in most records, active means well fitted inhibition curve with a large enough effect; inconclusive means small, poorly fitted or top-dose-only effect; inactive means no such curve, though single readings can be large or run the other way. Potencies of inconclusive entries are doubtful fits and often do not repeat.
target: Histone-lysine N-methyltransferase EHMT2 (Homo sapiens) (UniProt Q96KQ7); test: qHTS Assay for Inhibitors of Histone Lysine Methyltransferase G9a; details: G9a H3K9 monomethylation, AlphaScreen, 2 h; activity, negative = inhibition: at 59 µM (top of the series) unless noted; further: nearly all actives have a fitted effect of over 75% in size
Sequence of UniProt Q96KQ7 (Q96KQ7 whole entry, looked up): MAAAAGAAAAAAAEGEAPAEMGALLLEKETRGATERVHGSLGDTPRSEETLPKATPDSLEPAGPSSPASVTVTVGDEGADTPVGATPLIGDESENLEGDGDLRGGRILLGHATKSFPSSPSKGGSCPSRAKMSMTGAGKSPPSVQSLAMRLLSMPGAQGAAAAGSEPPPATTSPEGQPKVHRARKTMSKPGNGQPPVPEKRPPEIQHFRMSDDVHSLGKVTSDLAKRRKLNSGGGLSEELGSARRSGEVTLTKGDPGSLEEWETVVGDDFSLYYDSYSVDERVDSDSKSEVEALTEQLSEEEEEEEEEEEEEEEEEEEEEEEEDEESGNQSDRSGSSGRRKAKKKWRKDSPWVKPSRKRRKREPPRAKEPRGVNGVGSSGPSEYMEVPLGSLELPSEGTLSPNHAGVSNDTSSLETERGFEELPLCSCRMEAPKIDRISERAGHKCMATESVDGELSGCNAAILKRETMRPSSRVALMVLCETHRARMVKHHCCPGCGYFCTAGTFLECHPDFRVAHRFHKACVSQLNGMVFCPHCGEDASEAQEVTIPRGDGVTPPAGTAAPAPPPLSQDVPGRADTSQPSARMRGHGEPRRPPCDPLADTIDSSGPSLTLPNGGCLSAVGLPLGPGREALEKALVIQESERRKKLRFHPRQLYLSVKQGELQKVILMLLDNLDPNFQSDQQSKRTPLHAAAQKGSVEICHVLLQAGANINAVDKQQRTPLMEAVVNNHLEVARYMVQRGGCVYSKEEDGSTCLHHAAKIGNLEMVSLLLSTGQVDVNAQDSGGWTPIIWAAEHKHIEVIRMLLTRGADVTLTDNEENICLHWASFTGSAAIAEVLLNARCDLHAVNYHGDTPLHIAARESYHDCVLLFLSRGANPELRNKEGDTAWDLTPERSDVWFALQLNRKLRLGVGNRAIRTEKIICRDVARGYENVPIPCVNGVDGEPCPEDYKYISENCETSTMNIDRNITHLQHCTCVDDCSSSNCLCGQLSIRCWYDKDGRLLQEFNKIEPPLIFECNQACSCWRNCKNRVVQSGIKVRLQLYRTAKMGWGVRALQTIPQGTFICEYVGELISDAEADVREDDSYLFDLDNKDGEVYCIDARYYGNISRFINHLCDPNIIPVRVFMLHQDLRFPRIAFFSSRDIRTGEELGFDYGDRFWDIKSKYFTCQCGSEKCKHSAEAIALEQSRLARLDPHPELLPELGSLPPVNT
Summary of the method: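 G9a (20 nM) was preincubated 15 min with compound, then reacted 2 h at room temperature with 500 nM biotin-H3K9 peptide and 20 µM SAM. Monomethyl-H3K9 detected by AlphaScreen using anti-H3K9me1 antibody.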
On the % scale 0 is the no-effect control and ±100 the full control effect; potency means the concentration at half of the fitted maximal effect; tags describe the fitted curve by direction and shape.

| SMILES | Potency | activity, negative = inhibition |
| --- | --- | --- |
| CCOc1ccc(NC(=O)CSc2nccn2C2CCCC2)cc1 | inactive |  |
| COc1ccc2[nH]c(=O)c(CN(Cc3nnnn3Cc3ccccc3)CC3CCCO3)cc2c1 (centres undefined) | inconclusive: 79.4 µM [inhibitor, partial curve, poor fit] |  |
| CN(C(=S)Nc1ccc(Oc2ccccc2)cc1)c1ccc(O)cc1 | active: 1.26 µM |  |
| CN(C(=O)CSc1nc2ccc(NC(=O)c3cccs3)cc2s1)c1ccccc1 | inactive |  |
| Cc1cc(NC(=O)CSc2nnnn2-c2ccccc2C)no1 | inactive |  |
| CN(Cc1ccco1)C(=O)CN1C(=O)NC(c2ccccc2)(c2ccccc2)C1=O | inconclusive: 50.1 µM [inhibitor, partial curve] |  |
| O=C(NC1CCCN(Cc2ccc(Cl)cc2)C1)c1cccc(F)c1 (centres undefined) | inconclusive: 0.631 µM [inhibitor, partial curve, poor fit] |  |
| COC(=O)c1ccc2c(=O)n(NC(C)=O)c(=S)[nH]c2c1 | inconclusive: 4.47 µM [inhibitor, single point] |  |
| O=C(Cn1nnc(-c2cccc(C(F)(F)F)c2)n1)NCc1ccc(F)cc1 | inactive |  |
| COc1ccc(N2CCN(CC(=O)NC(=O)NCc3ccccc3)CC2)cc1 | inconclusive: 8.91 µM [inhibitor, single point] |  |
| COc1cccc(-n2c(Cc3cc(=O)[nH]c(=O)[nH]3)nnc2SCC(=O)N2CCCC2)c1 | inconclusive: 50.1 µM [inhibitor, partial curve] |  |
| O=C(Nc1ccc2c(c1)OCO2)C1CCCCC1 | inconclusive: 50.1 µM [inhibitor, partial curve, poor fit] |  |
| CC(C)Oc1ccccc1/C=N/Nc1ccccc1[N+](=O)[O-] | active: 3.55 µM |  |
| Cc1cc(C(C)(C)C)ccc1OC(=O)C1=CC=CN2CCS(=O)(=O)N=C12 | inconclusive: 50.1 µM [inhibitor, partial curve] |  |
| CCn1c(C)csc1=NC(=O)c1ccccc1 | inactive |  |
| C/C(=N\N1CCN(c2ccc(Cl)cc2)CC1)c1ccco1 | inconclusive: 39.8 µM [inhibitor, single point] |  |
| CC(=O)c1ccc(NC(=S)NCCCn2ccnc2)cc1 | inconclusive: 39.8 µM [inhibitor, partial curve, poor fit] |  |
| Cc1cc(NC(=O)c2ccc3[nH]c(C)c(C)c3c2)ccn1 | inconclusive: 50.1 µM [inhibitor, partial curve, poor fit] |  |
| O=c1c2oc3ccccc3c2ncn1Cc1ccc(Cl)cc1 | inactive |  |
| COc1ccccc1-n1c(C)nnc1SCC(=O)NCc1ccccc1 | inactive |  |
| O=C(O)C(O)c1ccccc1 (centres undefined) | inactive |  |
| COc1ccc(NC(=O)Nc2nnc(CC(=O)Nc3ccccc3)s2)cc1 | inactive |  |
| Cc1cc(S(=O)(=O)NCCc2csc(-c3cccc(F)c3)n2)ccc1F | inactive |  |
| CCCC(=O)OC1=C(C(C)=O)N(Cc2ccccc2)S(=O)(=O)c2ccccc21 | inconclusive: 35.5 µM [inhibitor, single point] |  |
| CN(CC(=O)Nc1ccc(F)cc1[N+](=O)[O-])Cc1ccccc1 | active: 50.1 µM |  |

| SMILES | Potency | activity, negative = inhibition |
| --- | --- | --- |
| Cc1nnc(NC(=O)CSc2nnc(Cc3cccn3C)n2CCc2ccccc2)s1 |  | inconclusive: -51.2% [inhibitor] |
| CN(C(=O)COC(=O)CN1C(=O)c2ccccc2C1=O)c1c(N)n(Cc2ccccc2)c(=O)[nH]c1=O | inconclusive: 89.1 µM [inhibitor, partial curve, poor fit] |  |
| NC(=S)NNC(=O)Nc1ccc(Cl)c(Cl)c1 | inconclusive: 3.16 µM [inhibitor, full curve, poor fit] |  |
| O=C(NC(=S)N1CCCCC1)c1cccs1 | inconclusive: 0.316 µM [inhibitor, full curve, poor fit] |  |
| O=C(CCS(=O)(=O)c1ccc(Br)cc1)Nc1ccccn1 | inconclusive: 79.4 µM [inhibitor, single point] |  |
| CCn1c(SCc2nc(-c3ccccc3)no2)nnc1-c1ccco1 | inconclusive: 35.5 µM [inhibitor, single point] |  |
| O=C(CCNS(=O)(=O)c1ccc(Cl)cc1)N1CCN(c2ncccn2)CC1 | inactive |  |
| CCCCOc1ccc(S(=O)(=O)n2nc(C)c(S(=O)(=O)N3CCCCCC3)c2C)cc1 | inactive |  |
| CCOC(=O)c1c(C)n(-c2ccc(C)cc2)c2ccc(O)c(CN(C)C)c12 | active: 44.7 µM |  |
| O=C1CCSC2(C(=O)N(Cc3ccccc3)c3ccccc32)N1c1ccccc1 (centres undefined) | inactive |  |
| CSCCC(NS(=O)(=O)c1c(Cl)cccc1Cl)C(=O)O (centres undefined) | inconclusive: 70.8 µM [inhibitor, single point] |  |
| O=C(Cn1nnc2ccccc21)OCC(=O)c1ccc(Cl)c(Cl)c1 | inconclusive: 0.794 µM [inhibitor, full curve, poor fit] |  |
| O=C(Cn1nnc(-c2ccccc2F)n1)NCCc1ccccc1 | inconclusive: 89.1 µM [inhibitor, single point] |  |
| CCc1ccc2nc(N3CCC(C(=O)NCCC(C)C)CC3)sc2c1 | active: 14.1 µM |  |
| Cc1ccc(C)c(C(C)NC(=O)c2ccc(Br)o2)c1 (centres undefined) | active: 50.1 µM |  |
| NC(=O)[C@@H]1CC2(CC(c3cccc(NC(=O)[C@H]4CCC(=O)N4)c3)=NO2)CN1C(=O)COc1ccc(Cl)cc1 (some centres undefined) |  | inconclusive: -81.3% [inhibitor] [at 12.7 µM] |
| COc1ccc(/C=N/NC(=O)C(=O)Nc2ccccn2)cc1OC | inconclusive: 44.7 µM [inhibitor, partial curve] |  |
| O=C(O)c1cc(S(=O)(=O)N2CC3CC3C2C(=O)O)c(Cl)cc1Cl (centres undefined) | inconclusive: 89.1 µM [inhibitor, single point] |  |
| COC(=O)C(=N/Nc1ccccc1C(=O)OC)/C(C)=N/O | active: 50.1 µM |  |
| CCc1cccc(CC)c1NC(=O)/C(C#N)=C/c1ccccc1C(F)(F)F | inconclusive: 11.2 µM [inhibitor, partial curve, poor fit] |  |
| Nc1ncnc2c1c(I)cn2[C@@H]1C[C@H](N)[C@@H](O)[C@H]1O | active: 6.7 µM |  |
| S=C(Nc1ccccc1)Nc1ccc(Br)cn1 | inconclusive: 50.1 µM [inhibitor, partial curve, poor fit] |  |
| CCOC(=O)c1c(C)n(C)c2cc(-c3ccc(C)cc3)c(O)cc12 | inconclusive: 35.5 µM [inhibitor, single point] |  |
| CCOC(=O)CN=C/C(C(C)=O)=C(/C)O | inactive |  |
| CN1CCC(N(C)S(=O)(=O)c2ccc(NC(=O)COc3cccc(C(F)(F)F)c3)cc2)CC1 | inconclusive: 50.1 µM [inhibitor, partial curve] |  |

| SMILES | Potency | activity, negative = inhibition |
| --- | --- | --- |
| CCn1c2ccccc2c2cc(NC(=O)C(=O)N3CCOCC3)ccc21 | inconclusive: 31.6 µM [inhibitor, partial curve] |  |
| O=C(NC(=S)NCCN1CCOCC1)c1ccc(Cl)cc1 | inconclusive: 5.01 µM [inhibitor, full curve, poor fit] |  |
| Cc1nnc(SCC(=O)Nc2sc3c(c2C#N)CCCCC3)n1N | active: 14.1 µM |  |
| COc1cccc2c1OCC1COc3c(c(=O)n(C)c(=O)n3C)C21 (centres undefined) | inconclusive: 39.8 µM [inhibitor, single point] |  |
| C/C(=N\Nc1ccc(F)cc1)c1ccncc1 | inconclusive: 12.6 µM [inhibitor, partial curve, poor fit] |  |
| O=C(CN1CCN(Cc2ccccc2)CC1)NCc1ccc(Cl)cc1 | inactive |  |
| COc1ccc(C2=Nn3c(nnc3-c3ccncc3)SC2)cc1OC | inconclusive: 3.55 µM [inhibitor, single point] |  |
| O=C(Nc1ccc(CN2CCOCC2)cc1)c1cccc(F)c1 | inactive |  |
| Cc1[nH]c2ccc(F)cc2c1CCN(Cc1cccnc1)C(=S)Nc1ccc(F)cc1 | inconclusive: 70.8 µM [inhibitor, partial curve] |  |
| N#CC1(NC(=O)CSc2nnc(-c3ccccc3F)o2)CCCCC1 | active: 39.8 µM |  |
| CCCCNC(=S)Nc1ccc2nc(N3CCN(CC)CC3)cc(C)c2c1 | inconclusive: 89.1 µM [inhibitor, single point] |  |
| O=C(CSc1nnc2scc(-c3ccccc3)n12)N1CCN(Cc2ccccc2)CC1 | inconclusive: 1.26 µM [inhibitor, partial curve, poor fit] |  |
| CCN(CC)S(=O)(=O)c1ccc(N2CCOCC2)c(NS(=O)(=O)c2cc(C(C)(C)C)ccc2C)c1 | active: 10 µM |  |
| CC(NCCC(Cc1ccccc1)c1ccco1)c1ccccc1 (centres undefined) | inactive |  |
| COC(=O)C1=C(O)/C(=C\c2cc(C)n(-c3ccccc3C)c2C)N=C1C | active: 20 µM |  |
| COc1ccc(C(=O)Nc2ccc(S(=O)(=O)NCc3ccco3)cc2)cc1OC | active: 39.8 µM |  |
| CC(=O)N1CCc2cc(C(=O)CN3CCCN(Cc4ccc(F)cc4)C3)ccc21 | active: 44.7 µM |  |
| c1ccc(CCNc2ncnc3sccc23)nc1 | inconclusive: 79.4 µM [inhibitor, partial curve, poor fit] |  |
| Cn1cc(S(=O)(=O)c2ccccc2)c(=O)c2cc(F)c(N3CCCC3)cc21 | inactive |  |
| Cc1nc(C(N)=O)c(N)n1CCc1ccccc1 | inconclusive: 89.1 µM [inhibitor, single point] |  |
| CCOC(=O)NCCOC(=O)Nc1ccc(Cl)cc1 | inactive |  |
| CC(=O)N1CCc2cc(S(=O)(=O)CCC(=O)O)ccc21 | inconclusive: 50.1 µM [inhibitor, partial curve] |  |
| CCOc1cccc(C(=O)NC(=S)Nc2ccccc2)c1 | inconclusive: 8.91 µM [inhibitor, full curve, poor fit] |  |
| COc1ccccc1NS(=O)(=O)c1cc([N+](=O)[O-])ccc1N/N=C/c1sc(N2CCOCC2)nc1-c1ccccc1 | active: 39.8 µM |  |

Source: PubChem BioAssay AID504332 (National Center for Advancing Translational Sciences (NCATS), 2011)
